In the supplement of paper PMC11417369:
± gives the standard deviation of the averaged measurements. The list shows a part of the results.

These sequences were tested on PfAP2-G AP2 domain (GST-tagged) (assay: gcPBM binding intensity (ln(normalized median fluorescence intensity)); higher = stronger DNA binding).
How it was run: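 After 1 h on an Agilent 4 × 180k array of primer-extended double-stranded 36-bp intergenic genomic probes and negative controls, bound GST-tagged P. falciparum DNA-binding domains were detected with Alexa488 anti-GST antibody and scanned at 488 nm. The domains had been expressed in E. coli, and binding took place in 1× PBS with 1% milk, 0.2 mg/ml BSA, 0.5% salmon testes DNA and 0.03% Triton X-100. Binding intensity is the highest Masliner-normalised natural-log median intensity across replicate spots of either probe orientation.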

Row | Sequence | gcPBM binding intensity (ln)
1 | ATTTATTAACCATATACACACATATATTTGTATTTA [CACACA_site6744] | 9.96 ± 0.18
2 | ATAGTATCTGGTAGCTGTACGAGTCGTAGAGTGCAG [XGTACX_site2020] | 11.3 ± 0.75
3 | ATATATATATATATATGTACGTACTCAGTTATGCCT [XGTACX_site453] | 11.7 ± 1.2
4 | TTCCCTAATATTTGTTGTACTTGTTATATTTTTTTT [XGTACX_site5994] | 11.3 ± 0.76
5 | TATATTTGTAAGAAGAGTACTAAAAAAAGAATAAAG [XGTACX_site8704] | 11.3 ± 0.63
6 | TAATATCAATTTTTATGTACTTATATATATATATAT [XGTACX_site5879] | 11.3 ± 0.84
7 | AGTAGTCTGGAGAAGAGTACACAGTATCTGGTAACA [XGTACX_site2032] | 11.4 ± 0.97
8 | ATTGAGAGAAAAAAATGTACTTGATCAAAATGGATA [XGTACX_site1649] | 10.9 ± 0.5
9 | TTATTATATAAAGTTTCACACATTATTTGTTCAAAC [CACACA_site5218] | 10 ± 0.11
10 | ATATGAAGTATCGAATTAAGGGCAACAAATAAATTA [CACACA_negctrl_site1116] | 10.4 ± 0.35
11 | AAAAAAATAATATAAATAATGAAAAGATATAAATAA [GTGCAC_negctrl_site432] | 9.65 ± 0.22
12 | AATATAAGCAAATACACACACACATATAAATATGTA [CACACA_site7741] | 10 ± 0.11
13 | TACATATATAAATATGTACACACATATGTATGATCT [CACACA_site9284] | 11.2 ± 0.81
14 | TTATATATGACTAACGGTTTTTTTTTTTTTTTTTTT [CACACA_negctrl_site576] | 10.7 ± 0.37
15 | GTGTATATATGTTATACACACAAAAATATTTTGTAT [CACACA_site265] | 10.1 ± 0.057
16 | AAAAATCATATAGGTTGTACGGGTAGTTTATTTTAT [XGTACX_site6936] | 11 ± 0.54
17 | ATTTTGTAAAAGGTCATACACACATATTCAAAAGAA [CACACA_site2946] | 10.3 ± 0.29
18 | ACAAAAAAAAAAAAAAAAAAAAAAAAAAAATAATAA [CACACA_negctrl_site1640] | 9.62 ± 0.18
19 | AAAATATATTAAGGCACACACATACATATTTATATA [CACACA_site7707] | 10.1 ± 0.14
20 | AGATCAATAATGACAAGTACACAAAATAACATTTAA [XGTACX_site6968] | 11.4 ± 0.91
21 | TACATACAGAAACACACACACACATATATATATATA [CACACA_site2919] | 10.1 ± 0.3
22 | AAAGAATAATTAAATACACACATATTACAGTAAAAA [CACACA_site2450] | 10.03 ± 0.092
23 | CGCACCCACAGACACACACACACATATATATATATA [CACACA_site2202] | 10.2 ± 0.3

Row | Sequence | gcPBM binding intensity (ln)
24 | AATATATATTAAATATGTACTTATTTTTTGGTTGCT [XGTACX_site3613] | 11.5 ± 0.86
25 | TATAAATTAAGATAACGTACATATAATAATATAAAC [XGTACX_site487] | 11.2 ± 0.59
26 | TGCATAATTAAAAATGGTACACTGTATTTATAATAT [XGTACX_site1575] | 11.2 ± 0.85
27 | TGTACAGTATATACAACACACATTTGTATAAATATA [CACACA_site1002] | 10.46 ± 0.035
28 | TGTACACCCAGAAATGCACACACATATATATATATA [CACACA_site8716] | 10.9 ± 0.49
29 | TATATATATTTTATGTGTACTCAATGTTATAACGCA [XGTACX_site8360] | 11.6 ± 1
30 | AATAGAGTTGAATGCACACATACAAATTTTTAGTTT [CACACA_site3564] | 9.79 ± 0.21
31 | AAAAAAATACATACGTGTACCCACATATATGTATCT [XGTACX_site5319] | 11.3 ± 0.77
32 | TTGAAGGTGGCAATGTGTACATAGAATAACCAGTGC [XGTACX_site4738] | 11.4 ± 0.91
33 | ACAATTGCATCTATCACACATACATACATACATACA [CACACA_site5063] | 10.6 ± 0.42
34 | AAAAAAAAAAAACATTGTACGCACATTTTATATGTC [XGTACX_site6974] | 11.6 ± 0.93
35 | GTTTCTACTTATATAACAGGACACGTGTGAATAATT [TGCATGCA_negctrl_site430] | 10.6 ± 0.44
36 | GCAAGTCCATGAACGGTGCAGGAATTAACAAAAATA | 10.2 ± 0.28
37 | TCATGGCCATTTTCAGTGCATATGTGTATTTAATAT [GTGCAC_site9529] | 10.4 ± 0.2
38 | AATAAAAATAAAAGCACACATAAATATATATATATT [CACACA_site1441] | 9.82 ± 0.042
39 | ATGAAGAAATAAATGTGTACATATCTTAGTATCATA [XGTACX_site8658] | 11.5 ± 0.76
40 | TATTTAATTTATACACGTACATATATAAATAATACA [XGTACX_site1148] | 11.4 ± 0.91
41 | TTATAATTTTTCTATTGTACATTTAATAATATATAT [XGTACX_site7326] | 10.9 ± 0.47
42 | TTATACATATTTATATGTACGTAATATAATATTAAT [XGTACX_site6520] | 11.3 ± 0.91
43 | ATATTTTTTTTTGTTACACACGTTTTTTAAAAAATG [CACACA_site1603] | 10.6 ± 0.21
44 | TCATAAAAATAAAAATGTACACATTAGAAATATTGT [XGTACX_site3671] | 11.2 ± 0.67
45 | AGAAATAAAAAAAAAAATATATATATTATATATATA [CACACA_negctrl_site1799] | 9.49 ± 0.35
46 | TATAATGATGATGATAGTACGTATTAGTATAAAAAA [XGTACX_site9] | 11.1 ± 0.72

Row | Sequence | gcPBM binding intensity (ln)
47 | TCATGGGTGTATTTCACACACGGATAATCATTTATA [CACACA_site4663] | 10.2 ± 0.21
48 | TTACTATAAAATGTCACACATTCTGTTTCCTTACTT [CACACA_site5714] | 10.09 ± 0.042
49 | ATTATAAAAGAATTTTTTTTTATTTCATTAAAATAT [CACACA_negctrl_site1137] | 9.37 ± 0.2
50 | AGCACATAAATAATTAAACACACATTGTTCTAGACA [CACACA_site8746] | 9.74 ± 0.19
51 | TCAACAAAATTGAAGGAACACACATACATATATATA [CACACA_site7940] | 10 ± 0.15
52 | TATAAATATCTGTATGCACACATTTTTTTTGGAAAA [CACACA_site4734] | 10.2 ± 0.18
53 | ATTTTTTCTCATAAAAACGTGAACGTTTATTTTACA [CACACA_negctrl_site1041] | 10 ± 0.12
54 | CAACTTTATACATATAGTACAAGTTATATTTTATTA [XGTACX_site6651] | 10.8 ± 0.49
55 | TACCCTTGCATGTAGGTGCAATTTTTTTTTTTTTTT | 10.2 ± 0.2
56 | TTCGTAATTTATATCACACACATATATATATAATAA [CACACA_site3115] | 10.1 ± 0.34
57 | TATATATATATATATTGTACTATATAGTATCTTTTT [XGTACX_site1646] | 11 ± 0.52
58 | TATATATTTTCTTTTGCACACTGTTTTCCTTTTTTT [CACACA_site2739] | 10.035 ± 0.007
59 | AACGATTTACATCACTGTACTAATGATATACCTCAT [XGTACX_site7463] | 11.2 ± 0.95
60 | AAAGAAATAAGGTGCACACATATACATATATATATA [CACACA_site429] | 10.5 ± 0.59
61 | TTTAAAAAAAATTCATATTATATATATATATATTAT [CACACA_negctrl_site1733] | 9.2 ± 0.15
62 | CTTTCCATATATGATAGTACACGATAAAAAAAAAAA [XGTACX_site5772] | 11.2 ± 0.95
63 | TTCTTTTTTATTTTTCAACACACATAATAAATTTCT [CACACA_site8253] | 10.1 ± 0.11
64 | TAATAATAGTACTGACATCAAAATCTTATTAAAAAT [GTGCAC_negctrl_site308] | 11 ± 0.83
65 | GCTATATATTAATGTTGTACTTTATGTTCATATTGT [XGTACX_site3619] | 11.2 ± 0.75
66 | AAAATGTACGCATATACACACACATAAATAGATACG [CACACA_site9124] | 11.6 ± 0.92
67 | TTTATGTATTTAATATGTACATATAGTTGTTAATAA [XGTACX_site1938] | 11.2 ± 0.81
68 | AAGAAATAAATACATACACACATATATAAATAAATA [CACACA_site7559] | 9.915 ± 0.092
69 | AAGAAATAATTATTATGTACTTAAAAAAATTAAAAT [XGTACX_site7423] | 11.3 ± 0.68

Row | Sequence | gcPBM binding intensity (ln)
70 | TATAAAATTTACGTGTGTACATATTTAATAATTTTT [XGTACX_site5001] | 11.4 ± 0.83
71 | AAGATATGAGGGAATACACACATATTTATATTTATA [CACACA_site6846] | 9.845 ± 0.092
72 | ACATCATAAAATTTATGTACACATTTTTAATTATAC [XGTACX_site7759] | 11.5 ± 0.73
73 | ATCATTTTTATGTACACACACATATACGTTGAATAT [CACACA_site1865] | 11.6 ± 1.1
74 | TAATTTTTTATATATTGTACAAATAATATATGATGT [XGTACX_site268] | 10.9 ± 0.59
75 | TAAATATAGAAACACACACACATTAATACATATATT [CACACA_site3489] | 10.01 ± 0.035
76 | AAATTTGAAATGCATGAACACACACCGCTATAAATG [CACACA_site8230] | 10.24 ± 0.099
77 | AGCATAAAAATGATATGTACATATATATATATATAT [XGTACX_site2836] | 11 ± 0.57
78 | CATACATACATACATACACACATACATATGTATATA [CACACA_site7216] | 10.6 ± 0.38
79 | AATCATAAACATTATGCACACAAAAATAAAAAAAAA [CACACA_site8289] | 10.1 ± 0.26
80 | TATCTTCAATGTGAAAGTACTTAAATTGTTATAAAA [XGTACX_site2586] | 11.3 ± 0.79
81 | ATTTAATGTATTTTGCGTACGAATTATTTTATTTCA [XGTACX_site7331] | 11.2 ± 0.61
82 | GAAATTAAATGACATACACACTATATTATATATTTT [CACACA_site5693] | 9.85 ± 0.15
83 | TAGATAGATTAAAATACATGCATATTATTAAAAAAT [TGCATGCA_site739] | 9.62 ± 0.071
84 | CACCCATACACATACAAACACACATTCTATATATAT [CACACA_site1600] | 10.2 ± 0.18
85 | TATATATATATATATGTGCACATATTTATATGTTTT | 10.2 ± 0.22
86 | TGGAATAAAAAAAGGAGTACAATTAATTATTCTTAA [XGTACX_site8299] | 11.8 ± 1.3
87 | TATTTATAAATTTACACACACACATGTGAACATAAA [CACACA_site1909] | 10.2 ± 0.14
88 | ATTTTAAAAAATTAATGTACTTAATTAATACTGAAA [XGTACX_site7702] | 11.1 ± 0.93
89 | AAAAAAAAAACAAATGCATGTAATATAAGAATTACA [TGCATGCA_site908] | 9.64 ± 0.33
